Measurements: patent US20250221953A1 (The University of Chicago, priority 2022, published 2025)

Tested on: PD-1^+ Jurkat T cells co-cultured with H596 (PD-L1^+) cells
Test: 1st screen 1b: rescue of PD-L1/PD-1 dependent exhaustion of PD-1+ Jurkat T cells in co-culture (IL-2 ELISA)
Assay type: cell-based, human
Settings: 1st screen 1b (Table 4): rescue of PD-L1/PD-1 dependent exhaustion of PD-1 expressing Jurkat T cells co-cultured with PD-L1-expressing H596 cells

| Molecule | Relative changed percentage (%) |
| --- | --- |
| Carcinoembryonic Antigen (CEA) (protein, UniProt P06731 35-685, looked up) Cell adhesion molecule CEACAM5: KLTIESTPFNVAEGKEVLLLVHNLPQHLFGYSWYKGERVDGNRQIIGYVIGTQQATPGPAYSGREIIYPNASLLIQNIIQNDTGFYTLHVIKSDLVNEEATGQFRVYPELPKPSISSNNSKPVEDKDAVAFTCEPETQDATYLWWVNNQSLPVSPRLQLSNGNRTLTLFNVTRNDTASYKCETQNPVSARRSDSVILNVLYGPDAPTISPLNTSYRSGENLNLSCHAASNPPAQYSWFVNGTFQQSTQELFIPNITVNNSGSYTCQAHNSDTGLNRTTVTTITVYAEPPKPFITSNNSNPVEDEDAVALTCEPEIQNTTYLWWVNNQSLPVSPRLQLSNDNRTLTLLSVTRNDVGPYECGIQNELSVDHSDPVILNVLYGPDDPTISPSYTYYRPGVNLSLSCHAASNPPAQYSWLIDGNIQQHTQELFISNITEKNSGLYTCQANNSASGHSRTTVKTITVSAELPKPSISSNNSKPVEDKDAVAFTCEPEAQNTTYLWWVNGQSLPVSPRLQLSNGNRTLTLFNVTRNDARAYVCGIQNSVSANRSDPVTLDVLYGPDTPIISPPDSSYLSGANLNLSCHSASNPSPQYSWRINGIPQQHTQVLFIAKITPNNNGTYACFVSNLATGRNNSIVKSITVSASGTSPGLSA | −0.3876 |
| LIPASE FROM PORCINE PANCREAS (protein, UniProt P00591 1-450, looked up) Pancreatic triacylglycerol …: SEVCFPRLGCFSDDAPWAGIVQRPLKILPWSPKDVDTRFLLYTNQNQNNYQELVADPSTITNSNFRMDRKTRFIIHGFIDKGEEDWLSNICKNLFKVESVNCICVDWKGGSRTGYTQASQNIRIVGAEVAYFVEVLKSSLGYSPSNVHVIGHSLGSHAAGEAGRRTNGTIERITGLDPAEPCFQGTPELVRLDPSDAKFVDVIHTDAAPIIPNLGFGMSQTVGHLDFFPNGGKQMPGCQKNILSQIVDIDGIWEGTRDFVACNHLRSYKYYADSILNPDGFAGFPCDSYNVFTANKCFPCPSEGCPQMGHYADRFPGKTNGVSQVFYLNTGDASNFARWRYKVSVTLSGKKVTGHILVSLFGNEGNSRQYEIYKGTLQPDNTHSDEFDSDVEVGDLQKVKFIWYNNNVINPTLPRVGASKITVERNDGKVYDFCSQETVREEVLLTLNPC | −66.02 |
